Laboratory results: the antibiotic and cytotoxicity screens of Wong et al. (2023)
The other results are listed elsewhere or left out.

What follows are molecules tested on HSkMC (human skeletal muscle cells) (assay: cytotoxicity call (relative viability < 0.9)). Details: 10 µM.

SMILES | cytotoxicity call
O=C(CCCCC(=O)N/N=C/[C@H](O)[C@@H](O)[C@H](O)[C@H](O)CO[C@H]1O[C@H](CO)[C@H](O)[C@H](O)[C@H]1O)NO | inactive
c1ccc([C@@H]2CNCCN2)cc1 | inactive
CC(=O)N(C)C[C@@H]1Oc2ncc(C#CC(C)(C)O)cc2C(=O)N([C@H](C)CO)C[C@@H]1C | inactive
O=C(O)Cc1cc(I)c(Oc2ccc(O)c(I)c2)c(I)c1 | inactive
C[C@@H]1CCCCO[C@@H](CN(C)Cc2ccc(C(=O)Nc3ccccc3N)cc2)[C@@H](C)CN([C@H](C)CO)C(=O)c2cc(NC(=O)NC3CCCCC3)ccc2O1 | inactive
CCOc1ccc(C(=O)Nc2ccc(N3CCN(C(=O)c4cccs4)CC3)c(Cl)c2)cc1Br | inactive
C[C@@H]1CN([C@@H](C)CO)C(=O)Cc2cc(NS(=O)(=O)c3ccccc3)ccc2O[C@H]1CN(C)S(C)(=O)=O | inactive
COCC(=O)N(C)C[C@@H]1Oc2cc(C#CCN(C)C)ccc2S(=O)(=O)N([C@@H](C)CO)C[C@@H]1C | inactive
C[C@H](CO)N1C[C@H](C)[C@H](CN(C)C(=O)c2ccncc2)Oc2cc(-c3cccc(C#N)c3)ccc2S1(=O)=O | inactive
O=C(C[C@@H]1CC[C@@H]2[C@H](COC[C@@H](O)CN2Cc2cccc(C(F)(F)F)c2)O1)NCCc1ccncc1 | inactive
C[C@@H]1CN([C@H](C)CO)C(=O)c2cccc(NC(=O)C3CCCCC3)c2O[C@@H]1CN(C)C(=O)Nc1ccc(C(F)(F)F)cc1 | inactive
C=CCN(CCCC)C(=O)[C@H]1N(C(C)(C)CO)C(=O)[C@H]2[C@H](C(=O)O)[C@@H]3C=C[C@@]21O3 | inactive
O=C(CCCCCCC(=O)Nc1ccc([C@H]2O[C@@H](COc3ccccc3)C[C@H](c3ccccc3)O2)cc1)NO | inactive
CC(=O)O[C@@H]1[C@H]2OC(C)(C)O[C@H]2O[C@@H]1[C@@H](O)CO | inactive
C[C@H](CO)N1C[C@H](C)[C@H](CN(C)C(=O)NC2CCCCC2)Oc2ccc(NC(=O)Nc3ccc(C(F)(F)F)cc3)cc2C1=O | inactive
O=C(O)[C@@H]1CCCCO1 | inactive
COc1ccc(S(=O)(=O)Nc2ccc3c(c2)CC(=O)N([C@@H](C)CO)C[C@H](C)[C@H](CN(C)Cc2ccc(Cl)c(Cl)c2)O3)cc1 | active
COc1ccc2c(c1)OCc1c-2oc2cc(OC)ccc12 | inactive
C[C@@H]1CN([C@H](C)CO)C(=O)Cc2cc(NS(=O)(=O)c3cccs3)ccc2O[C@H]1CN(C)Cc1ccc(Oc2ccccc2)cc1 | inactive
C[C@H]1CN([C@@H](C)CO)C(=O)c2cc(NS(=O)(=O)c3cn(C)cn3)ccc2O[C@H]1CN(C)S(=O)(=O)c1cn(C)cn1 | inactive
C[C@H](CO)N1C[C@H](C)[C@H](CN(C)C(=O)Nc2ccc(C(F)(F)F)cc2)OCCCC[C@H](C)Oc2ccc(NS(C)(=O)=O)cc2C1=O | inactive
C[C@@H]1CCCCO[C@H](CN(C)C(=O)Nc2ccc(C(F)(F)F)cc2)[C@H](C)CN([C@@H](C)CO)C(=O)c2cc(NC(=O)Nc3ccc(F)cc3)ccc2O1 | inactive
COc1cc(NC(=O)Cn2cnc3c2c(=O)n(C)c(=O)n3C)cc(OC)c1OC | inactive
CCOC(=O)N[C@@H]1CC(=O)N(C2CC2)C1 | inactive
COc1ccc(CN(C)C[C@@H]2Oc3c(NS(C)(=O)=O)cccc3C(=O)N([C@@H](C)CO)C[C@H]2C)cc1 | inactive
CN(Cc1ccccc1)C[C@H]1C[C@@H](c2ccc(CO)cc2)O[C@H](c2ccc(NC(=O)CCCCCCC(=O)NO)cc2)O1 | inactive
C[C@@H]1CCCCO[C@@H](CN(C)C(=O)Nc2ccc3c(c2)OCO3)[C@@H](C)CN([C@@H](C)CO)C(=O)c2cc(NS(=O)(=O)c3ccccc3)ccc2O1 | inactive
C[C@H]1CN([C@@H](C)CO)C(=O)c2cccc(NC(=O)C3CC3)c2O[C@@H]1CN(C)S(=O)(=O)c1cn(C)cn1 | inactive
C[C@H](CO)N1C[C@H](C)[C@H](CN(C)C(=O)c2ccccc2)OCCCC[C@H](C)Oc2ccc(NC(=O)Nc3ccc4c(c3)OCO4)cc2C1=O | inactive
C[C@H]1CN([C@@H](C)CO)S(=O)(=O)c2ccc(C3=CCCCC3)cc2O[C@H]1CN(C)Cc1cncnc1 | inactive
